Source: ChEMBL document CHEMBL4888484, “Replenishing the malaria drug discovery pipeline: Screening and hit evaluation of the MMV Hit Generation Library 1 (HGL1) against asexual blood stage Plasmodium falciparum ,using a nano luciferase reporter read-out” (2022)
Several values for one entry are separate records, joined by “and”; a condition that tells them apart may be missing. Identical values can stand only once. About 540 (0.36%) of roughly 150,000 compounds showed an effect of 50% or more. Some of the results follow.

System: Plasmodium falciparum
Experiment: Primary screen in NF54 nanoGlo assay, in single point, at 2uM, 72h; a lower Z score goes with more inhibition
Type: functional, Erythrocyte
Conditions: timepoint 72 hour

| Compound | % Inhibition | Z score | % Inhibition (2 µM) |
| --- | --- | --- | --- |
| O=C(O)c1ccc(Oc2nccnc2N2CCCC2)cc1 | 31% | -3.48 | – |
| COC(=O)[C@@H](Nc1nc(C)cc(OC)n1)C(C)C | 7% | -1.06 | – |
| Cc1cnc(-c2noc(C(C)(C)F)n2)s1 | -1% | 0.11 | – |
| Cc1ccc(Br)cc1C(=O)[C@H](C#N)C(=O)NC(C)C | -1% | 0.07 | – |
| CN1CCC(N(CCc2ccccc2)C(=O)c2cccc(O)c2)CC1 | 11% | -1.39 | – |
| Cc1nc([C@H]2CCCN(C(=O)c3ccc(=O)[nH]c3)C2)cc(N2CCOCC2)n1 | -5% | 0.81 | – |
| CCc1ccc2c(CC(=O)N[C@H]3CCc4nc(C)cn4C3)coc2c1 | -17% | 1.65 | – |
| O=C(c1ccc(=O)[nH]c1)N1CCN(Cc2ccccc2)[C@@H]2CS(=O)(=O)C[C@@H]21 | -3% | 0.51 | – |
| CCC[C@H](C)N1CC2(CCN(C(=O)CCn3ccc(C)n3)CC2)OC1=O | -5% | 0.64 | – |
| CC(C)(C)c1nc(CS(C)(=O)=O)cs1 | -6% | 0.71 | – |
| Cc1c(C(=O)NCc2n[nH]c(N)n2)n(C)c2ccc(F)cc12 | 2% | -0.16 | – |
| Cc1nn2c(N3CCC(Cc4ccccc4)CC3)cc(C(C)(C)C)nc2c1-c1ccccc1 | -4% | 0.58 | – |
| CCn1nc(COc2ccccc2OC)nc1-c1cccn1C1CC1 | 4% | -0.49 | – |
| CCNc1ncc(CN2CCC(N3CCc4ccccc4C3)CC2)cn1 | -12% | 1.53 | – |
| O=C1CCCC[C@@H](C(=O)NCc2ccccc2)N1 | 5% | -0.73 | – |
| CN1CC(=O)N2CCN(Cc3cc(O)c4cc(F)ccc4n3)C[C@H]2C1=O | -11% | 2.15 | – |
| CCCO[C@H]1CCCN(c2nc(N)nc(C)c2CCC(=O)O)C1 | -10% | 0.94 | – |
| CN(Cc1ccccc1)c1ncccc1CNC(=O)[C@H]1CCCNCC1 | 3% | -0.65 | – |
| O=C(NCc1cc(F)cc(F)c1)c1ccc2ccccc2n1 | 36% | -4.81 | – |
| CN(Cc1cccs1)C(=O)CN1C(=O)N[C@]2(CCc3ccccc3C2)C1=O | -2% | 0.26 | – |
| Cc1cccc(NS(=O)(=O)c2ccc(-c3[nH]ncc3C(=O)N3CCOCC3)o2)c1C | -7% | 0.86 | – |

| Compound | % Inhibition | Z score | % Inhibition (2 µM) |
| --- | --- | --- | --- |
| CC(N)C1CCCCN1C(=O)c1cc(Oc2ccccc2)ccn1 (configuration not stated) | 1% | -0.1 | – |
| CCCn1ncnc1[C@H](C)NS(=O)(=O)c1cccnc1 | 2% | -0.49 | – |
| O=C(c1cc(-c2ccco2)n[nH]1)N1CCN(c2ccccc2)CC1 | 13% | -1.62 | – |
| Cc1cc(C)c(NC(=O)C(C)S(=O)(=O)CC2CCCO2)c(C)c1 (configuration not stated) | -12% | 1.56 | – |
| CN(Cc1cn(C)nn1)[C@H]1CCCC[C@H]1C(F)(F)F | -7% | 1.3 | – |
| O=C(c1nc2n(n1)C1(CCCCC1)[C@@H]1CCCC[C@@H]1N2C(=O)C1CCCCC1)N1CCOCC1 | -26% | 2.33 | – |
| CCn1nc([C@H](O)c2ccccc2)nc1Cc1ccc(O)c(Cl)c1 | 0% | -0.02 | – |
| CCCCN(CC(N)=O)C(=O)c1ccc(OC)nc1 | 0% | -0.01 | – |
| Cc1cc(-c2cccc(C(=O)N3CCC[C@H](N)C3)c2)c2cc(F)cc(F)c2n1 | -9% | 1.33 | – |
| CNC(=O)N1CCC[C@H](CN2CCOCC2)C1 | -11% | 1.96 | – |
| O=S(=O)(Cc1ccccc1)NC[C@H]1CCCN1c1ccccc1 | -11% | 2.14 | – |
| CCn1nc(-c2ccco2)nc1C[C@H](C)N1CCOCC1 | -8% | 1.67 | – |
| CN(C(=O)c1cc(-c2ccc(F)cc2)[nH]n1)c1ccccc1 | 25% | -2.78 | – |
| C[C@H]1c2cc(Cl)cc(Cl)c2CCN1C(=O)CCc1cccnc1 | -8% | 1.35 | – |
| COc1c(NC(=O)CNc2ccccc2)c(C)nn1C | -1% | 0.07 | – |
| CC1(C)CC2(CCCCC2)N2C(=O)[C@@]3(NC(=O)c4ccccc4N3)c3cccc1c32 | 2% | -0.28 | – |
| Cc1csc(CN2CCn3c(nn(CC(=O)N(C)C)c3=O)C2)n1 | 5% | -0.67 | – |
| CCc1cnc(NC[C@H]2CCS(=O)(=O)C2)nc1 | -16% | 1.48 | – |
| O=C(N[C@@H]1CN(Cc2cccc(F)c2F)C[C@H]1CO)c1cccnc1 | -14% | 2.35 | – |
| Cc1ccc(C(=O)C(=O)NCc2ccc(N3CCNC(=O)C3)cc2)cc1 | -10% | 1.37 | – |
| Nc1nc(Oc2ccc(Br)cc2)cc(Oc2ccc(Br)cc2)n1 | -6% | 1.21 | – |

| Compound | % Inhibition | Z score | % Inhibition (2 µM) |
| --- | --- | --- | --- |
| CCn1c(C)cc(C(=O)N2CCNC(=O)C[C@H]2c2ccccc2)c1C | -2% | 0.28 | – |
| COc1ccc(OC)c(CN2C(=O)c3cc4c(OC)ccc(OC)c4n3C[C@]2(C(=O)NC2CCCCCC2)c2ccccc2)c1 | 37% | -5.3 | – |
| Cc1ccc(CN(C)C(=O)[C@@H](O)Cc2ccccc2)o1 | 0% | 0.04 | – |
| CO[C@H](CNC(=O)c1nnn(Cc2cc(C)no2)c1C)CC(C)C | 9% | -1.23 | – |
| Cc1ccc(C2=NN(C(=O)CN3CCOCC3)[C@H](c3cccc(F)c3)C2)cc1 | 3% | -0.5 | – |
| Cc1nn(CCN2C[C@@H](C(=O)O)CC2=O)c(C)c1Cl | -15% | 2.83 | – |
| O=C(O)CCN1CCC(c2nc3c(s2)CCCC3)CC1 | 0% | -0.04 | – |
| O=C(Nc1ccc(C(=O)N2CCOCC2)c(F)c1)c1ccsc1 | -8% | 1.29 | – |
| CC(=O)Nc1c(-c2ccccc2)c(C)nn1-c1ccc(C(=O)N2CCN(c3ccccc3)CC2)cc1 | -11% | 1.96 | – |
| Cc1ccc(-c2cc3ncc(C(=O)c4cc(F)ccc4O)cn3n2)cc1 | -4% | 0.4 | – |
| Cc1cccc(CNC2=NCCNC23CCN(S(=O)(=O)c2cc(C)cc(C)c2)CC3)c1 | -4% | 0.52 | – |
| CCn1ccnc1-c1nc2cc(S(=O)(=O)NC(C)C)ccc2n1C(C)C | 3% | -0.44 | – |
| Cc1ccc(S(=O)(=O)N2CCc3c(c(-c4nnc(-c5ccc(F)cc5)o4)nn3C)C2)cc1 | 1% | -0.07 | – |
| Cc1ccc(NS(=O)(=O)c2ccc(NC(=O)Cc3ccccc3)cc2)cc1C | 34% | -0.88 | – |
| O=C1CC(C(=O)N2CCCC2c2ccncc2)CN1c1ccccc1 (configuration not stated) | -8% | 1.05 | – |
| CN1CCN(C[C@@H]2CN(C(=O)CCCc3ccccc3)C[C@@H]2CO)CC1 | 0% | -0.01 | – |
| COc1ccc2cc(NC(=O)CNC(=O)c3cnccn3)cnc2c1 | -5% | 0.64 | – |
| O=C(COc1ccccc1-n1cnnc1)Nc1n[nH]c(C2CC2)n1 | – | – | 1% and -16% |
| COc1ccnc(NCc2ccc(N(C)C)c(F)c2)n1 | 6% | -0.67 | – |
| O=C(NC1(c2noc([C@@H]3CCCO3)n2)CCCCCC1)c1ocnc1C(F)F | 4% | -0.43 | – |
| CC(=O)N1CCN(C(=O)c2ccc3c(c2)[nH]c(=O)n3C)CC12CCCCC2 | 2% | -0.28 | – |

| Compound | % Inhibition | Z score | % Inhibition (2 µM) |
| --- | --- | --- | --- |
| COc1ccc(Cc2nnc(C(=O)NCc3cccnc3)o2)cc1OC | -1% | 0.22 | – |
| CC1(C)CC(NC(=O)c2ccccc2F)CC(C)(CNC(=O)c2ccccc2F)C1 (configuration not stated) | 9% | -1.65 | – |
| COc1cc(C(=O)N2CCN(C(=O)c3ccco3)CC2)on1 | -11% | 1.51 | – |
| Cc1nnc(C(=O)NCCc2c(C)n[nH]c2C)s1 | -8% | 1.11 | – |
| COC1CCCCC1NC1CCCc2ccccc21 (configuration not stated) | -1% | 0.19 | – |
| Cc1cc(C(=O)Cn2nnc3ccccc3c2=O)c(C)n1-c1ccc2c(c1)OCCO2 | -5% | 0.94 | – |
| CCCN(CCC)c1nc(-c2ccccc2)nc2c1sc(=S)n2-c1ccccc1 | -2% | 0.28 | – |
| CN(Cc1cccc(C#N)c1)S(=O)(=O)c1ccc2c(c1)CCO2 | -6% | 1.14 | – |
| CCn1cc(-c2n[nH]cc2C(=O)N[C@@H]2Cc3ccccc3[C@H]2O)cn1 | -8% | 1.28 | – |
| CC(C)(C)OC(=O)N1CCN(c2ccc(NCc3cscn3)nc2)CC1 | -7% | 0.88 | – |
| O=C1Cc2ccc(C(=O)NCC3CCOCC3)cc2N1 | -9% | 0.89 | – |
| CCc1nc(COC(=O)c2ccccc2-c2nnc(C)o2)cs1 | -12% | 2.17 | – |
| Cc1nc(N(C)C)nc(N(C)Cc2cc(C3CC3)[nH]n2)c1C | -11% | 1.53 | – |
| Cc1cc(N2CCCS2(=O)=O)ccc1C(=O)Nc1nnc(CC(C)C)s1 | -8% | 1.39 | – |
| COc1ccc(Cn2c(C)cc(O)c([C@H](c3ccncc3)N3CCN(c4ccccc4)CC3)c2=O)cc1 | 2% | -0.27 | – |
| CO[C@@H](CNC(=O)N1CCNC1=O)c1ccco1 | 19% | -2.41 | – |
| O=C(c1cnn2ccccc12)N1CCC[C@@](O)(C(F)(F)F)C1 | 2% | -0.29 | – |
| O=C(NCc1ncc[nH]1)c1cc(CN2CCc3ccccc3C2)on1 | 1% | -0.22 | – |
| CC(C)(C)C(=O)Nc1ccccc1C(=O)NC[C@H]1CCOC1 | -11% | 1.25 | – |
| C[C@H]1CCCN(C(=O)CCc2nc3ccccc3s2)C1 | -7% | 0.66 | – |
| c1ccc2c(C3CCN(c4nccn5cnnc45)CC3)ccnc2c1 | -14% | 1.85 | – |
